Measured values taken from patent US8333966B2, “CD37 immunotherapeutics and uses thereof” (Emergent Product Development Seattle, LLC, priority 2008, dated 2012).

T1: CD37 on Ramos cells (Homo sapiens, UniProt P11049)
T1 construct: endogenous in cells; host or cells: Ramos cells
T1 sequence (P11049 1-281): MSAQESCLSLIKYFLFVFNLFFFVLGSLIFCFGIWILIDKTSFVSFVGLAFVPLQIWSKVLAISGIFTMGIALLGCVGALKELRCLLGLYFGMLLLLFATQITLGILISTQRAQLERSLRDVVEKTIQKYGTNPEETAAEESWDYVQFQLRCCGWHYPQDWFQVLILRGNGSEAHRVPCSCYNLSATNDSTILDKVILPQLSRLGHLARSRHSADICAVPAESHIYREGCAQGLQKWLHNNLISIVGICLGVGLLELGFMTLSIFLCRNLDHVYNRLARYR


Experiments:
CD37 on Ramos cells = molecular target: T1, CD37 on Ramos cells; assay: FMAT competition assay against FMAT Blue labeled CAS-006 for binding to Ramos cells; conditions: for affinity for CD37 compared with parent chimeric CAS-006: competition with labeled CAS-006, Ramos cells
Text: A competition assay was used to compare the binding affinity of different anti-CD37 specific small modular immunopharmaceutical (SMIP) molecules to CD-37 found on Ramos cells (a B-lymphoblastoid cell line derived from a Burkitt lymphoma). An SEC purified chimeric anti-CD37 SMIP molecule (CAS-006, SEQ ID NO:247) was labeled with the FMAT Blue® fluorescence dye (Applied Biosystems) and used as the standard to compete with purified unlabeled chimeric anti-CD37 SMIP molecule (positive control) and purified unlabeled humanized anti-CD37 SMIP test molecules. […] Briefly, the reagent FMAT Blue® labeled chimeric anti-CD37 SMIP molecule was diluted to 2 μg/ml in FACS blocking buffer and the purified protein samples (CAS-001 (SEQ ID NO:6), CAS-002 (SEQ ID NO:48), CAS-003 (SEQ ID NO:52), and CAS-024 (SEQ ID NO:253)) were serially diluted 1:2 to concentrations ranging from 50 μg/ml to 0.02 μg/ml. Ramos cells were harvested at 1,000 rpm for 5 minutes and resuspend in FACS blocking buffer at 4×10^6 cells/10 ml buffer. To each well of a black 96-well plate the following was added: 50 μl sample, 50 μl FMAT Blue® labeled chimeric anti-CD37 SMIP molecule, and 50 μl Ramos cells (4×10^4/well). The plates were incubated at room temperature for 30 min and read on an 8200 Cellular Detection System (Applied Biosystems) gated for middle cell size and low signal.
A competition assay as described in Example 4 was used to compare the binding affinity of different mouse-human hybrid anti-CD37 SMIP molecules compared to CAS-024 binding to Ramos cells. An SEC purified chimeric anti-CD37 SMIP molecule (CAS-006, SEQ ID NO:247) was labeled with the FMAT Blue® fluorescence dye (Applied Biosystems) and used as the standard to compete with purified unlabeled chimeric anti-CD37 SMIP molecule (CAS-006, positive control) and purified unlabeled humanized anti-CD37 SMIP test molecules—CAS-002 (SEQ ID NO:48), CAS-003 (SEQ ID NO:52), CAS-014 (SEQ ID NO:251), CAS-017 (SEQ ID NO:252), and CAS-024 (SEQ ID NO:253).

[1] = SMIP expression in transfected CHO cells, supernatants titered with Protein A sensor; set-up: species or system Chinese Hamster Ovary (CHO); conditions: shake flasks, culture supernatants
Method: CAS-024 and other CD37-specific binding SMIP molecules were cloned into a Chinese Hamster Ovary (CHO) mammalian cell expression system. Transfected CHO cells that produced the SMIP molecules were cultured in shake flasks and harvested cell culture supernatants were titered using Octec Q Protein A sensor.

[2] = SMIP expression in transfected HEK293 cells, day 7 supernatants titered with Protein A sensor; conditions: supernatants day 7
Text: CAS-024 and other CD37-specific binding SMIP molecules were produced by recombinant DNA technology and transfected into HEK293 cells for 7 days. Cell culture supernatants were harvested on day 7 and titered using Octec Q Protein A sensor.

| Molecule | affinity for CD37 compared with parent chimeric CAS-006 (CD37 on Ramos cells) | Protein Titer Range [1] [µg/mL] | binding activity compared to CAS-001 or CAS-024 (CD37 on Ramos cells; Ramos cells, data not shown) | Protein Titer [2] [µg/mL] |
| --- | --- | --- | --- | --- |
| CAS-001: CD37-specific SMIP construct Vk3:VH5-51, 16aa linker, SSC-P hinge, SEQ ID NO:6 (protein, CD37 specific binding protein) MEAPAQLLFLLLLWLPDTTGEIVLTQSPATLSLSPGERATLSCRTSENVYSYLAWYQQKPGQAPRLLIYFAKTLAEGIPARFSGSGSGTDFTLTISSLEPEDFAVYYCQHHSDNPWTFGQGTKVEIKGGGGSGGGGSGGGGTGEVQLVQSGAEVKKPGESLKISCKGSGYSFTGYNMNWVRQMPGKGLEWMGNIDPYYGGTTYNRKFKGQVTISADKSISTAYLQWSSLKASDTAMYYCARSVGPMDYWGRGTLVTVSSDQ[sequence of human IgG1 Fc with changes omitted] | significantly less than CAS-006 or CAS-024 | 65 to 80 | – | – |
| CAS-062: SMIP construct Vk3:CDR-H3 JH6 CDRL1 (T25A); CDRH3 (Y102V), SEQ ID NO:254 (protein, CD37 specific binding protein) EIVLTQSPATLSLSPGERATLSCRASENVYSYLAWYQQKPGQAPRLLIYFAKTLAEGIPARFSGSGSGTDFTLTISSLEPEDFAVYYCQHHSDNPWTFGQGTKVEIKGGGGSGGGGSGGGGTGEVQLVQSGAEVKKPGESLKISCKGSGYSFTGYNMNWVRQMPGKGLEWMGNIDPYYGGTTYNRKFKGQVTISADKSISTAYLQWSSLKASDTAMYYCARSVGPMDVWGQGTTVTVSSDQ[sequence of human IgG1 Fc with changes omitted] | – | – | detectable but severely decreased binding | – |
| CAS-014: mouse-human hybrid SMIP mVH:Vk3, 22aa linker, SSC-P hinge, SEQ ID NO:24 (251 without leader) (protein, CD37 specific binding protein) MEAPAQLLFLLLLWLPDTTGAVQLQQSGPESEKPGASVKISCKASGYSFTGYNMNWVKQNNGKSLEWIGNIDPYYGGTTYNRKFKGKATLTVDKSSSTAYMQLKSLTSEDSAVYYCARSVGPMDYWGQGTSVTVSSGGGGSGGGGSGGGGSGGGGSASEIVLTQSPATLSLSPGERATLSCRTSENVYSYLAWYQQKPGQAPRLLIYFAKTLAEGIPARFSGSGSGTDFTLTISSLEPEDFAVYYCQHHSDNPWTFGQGTKVEIKGSS[sequence of human IgG1 Fc with changes omitted] | higher than CAS-006 | – | – | 2.16 |
| CAS-017: human-mouse hybrid SMIP Vk3:mVH, 16aa linker, SSC-P hinge, SEQ ID NO:30 (252 without leader) (protein, CD37 specific binding protein) MEAPAQLLFLLLLWLPDTTGEIVLTQSPATLSLSPGERATLSCRTSENVYSYLAWYQQKPGQAPRLLIYFAKTLAEGIPARFSGSGSGTDFTLTISSLEPEDFAVYYCQHHSDNPWTFGQGTKVEIKGGGGSGGGGSGGGGASAVQLQQSGPESEKPGASVKISCKASGYSFTGYNMNWVKQNNGKSLEWIGNIDPYYGGTTYNRKFKGKATLTVDKSSSTAYMQLKSLTSEDSAVYYCARSVGPMDYWGQGTSVTVSSS[sequence of human IgG1 Fc with changes omitted] | higher than CAS-006 | – | – | 0.70 |
| CAS-003: SMIP construct Vk3:VH5 JH5a CDRL1 (T25A); CDRH3 (M99F; Y102S), SEQ ID NO:52 (protein, CD37 specific binding protein) MEAPAQLLFLLLLWLPDTTGEIVLTQSPATLSLSPGERATLSCRASENVYSYLAWYQQKPGQAPRLLIYFAKTLAEGIPARFSGSGSGTDFTLTISSLEPEDFAVYYCQHHSDNPWTFGQGTKVEIKGGGGSGGGGSGGGGTGEVQLVQSGAEVKKPGESLKISCKGSGYSFTGYNMNWVRQMPGKGLEWMGNIDPYYGGTTYNRKFKGQVTISADKSISTAYLQWSSLKASDTAMYYCARSVGPFDSWGQGTLVTVSSDQ[sequence of human IgG1 Fc with changes omitted] | lower binding affinity | 300 to 360 | – | 2.39 |
| CAS-002: SMIP construct Vk3:VH5 JH4 CDRL1 (T25A); CDRH3 (M99F), SEQ ID NO:48 (protein, CD37 specific binding protein) MEAPAQLLFLLLLWLPDTTGEIVLTQSPATLSLSPGERATLSCRASENVYSYLAWYQQKPGQAPRLLIYFAKTLAEGIPARFSGSGSGTDFTLTISSLEPEDFAVYYCQHHSDNPWTFGQGTKVEIKGGGGSGGGGSGGGGTGEVQLVQSGAEVKKPGESLKISCKGSGYSFTGYNMNWVRQMPGKGLEWMGNIDPYYGGTTYNRKFKGQVTISADKSISTAYLQWSSLKASDTAMYYCARSVGPFDYWGQGTLVTVSSDQ[sequence of human IgG1 Fc with changes omitted] | – | 200 to 280 | – | 0.47 |
